Data: PubChem BioAssay AID504832 (National Center for Advancing Translational Sciences (NCATS), 2011)
Values joined by “and” are separate entries in the source; they are usually repeats but may differ in a detail not shown here. Equal entries are not always repeated. Screen size: about 310,000 compounds; about 18,000 (5.8%) were called active. The inconclusive results got no clear call from the source; some entries with a clear call stand among them for comparison. Calls follow the shape of the dose curve; as a rule, active = well fitted inhibition curve with a large enough effect; inconclusive = small, poorly fitted or top-dose-only effect, or another doubt; inactive = no such curve, though single readings can be large or run the other way. Potencies of inconclusive entries are left out as doubtful fits.
% is scaled to controls: 0 for no effect and ±100 for the full control effect; potency is read from the fitted curve at half-maximal effect; tags tell the direction and shape of the fitted curve.

Assay: Primary qHTS for delayed death inhibitors of the malarial parasite plastid, 48 hour incubation
Details: P. falciparum luciferase growth in erythrocytes; series mostly up to 28.7 µM; activity change, negative = inhibition: at the top concentration
Method in brief: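 Luminescence readout; reporter = integrated firefly luciferase in P. falciparum. RBC culture at 2% hematocrit, 0.1% parasitemia final, 37 C/5% CO2; decreased signal taken as growth inhibition.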
With `O=C(COc1ccc(Cl)cc1Br)NCC(c1ccco1)N1CCCC1` (stereo not drawn) the Potency was inconclusive [inhibitor, partial curve, poor fit].
With `CCN(CC(=O)Nc1c(F)cccc1F)C(=O)c1ccc(Sc2nncn2C)c([N+](=O)[O-])c1` the Potency was inconclusive [inhibitor, single point].
With `Cc1cc(OCC(=O)NNC(=O)c2cnccn2)cc(C)c1Cl` the Potency was inconclusive [inhibitor, single point].
For `Cc1ccc(O)c(CNCCNCc2cc(C)ccc2O)c1`, the Potency was active: 7.38 µM.
For `Cc1cc(C)cc(OCC(=O)OC/C(O)=C(\C#N)c2nc3ccccc3[nH]2)c1`, the “activity change, negative = inhibition” value was inactive: 16.7%.
With `CC(=O)c1ccc(N2CCN(C(=O)c3ccc(Cn4c(=S)[nH]c5ccc(N6CCOCC6)cc5c4=O)cc3)CC2)cc1` the Potency was inconclusive [inhibitor, partial curve, poor fit].
With `C/C=C(\C)C(=O)NCCN1C2=NC[C@@H](C)N2C[C@H]1Cc1ccc(O)cc1` the “activity change, negative = inhibition” value was inactive: 50.5%.
With `CC1CCCN(C(=S)SCC(=O)O)C1` (stereo not drawn) the Potency was inconclusive [inhibitor, full curve, poor fit].
With `Cc1ccc2c(c1)C1CN(C)CCC1N2S(=O)(=O)c1ccccc1` (stereo not drawn) the Potency was inconclusive [inhibitor, single point].
In the case of `O=C(CCSCCC(=O)Nc1ccccc1F)Nc1ccccc1F`, the “activity change, negative = inhibition” value is reported as inactive: 11.9%.
For `Cc1cc(Cl)c(C)c(S(=O)(=O)Oc2ccccc2NC(=O)CCC(=O)O)c1Cl`, the Potency was inconclusive [inhibitor, single point].
In the case of `COc1ccc(C(=O)SC2=NCCS2)cc1`, the “activity change, negative = inhibition” value is reported as inactive: -2.84%.
With `OC(CC#CCN1CCCC1)(c1ccccc1)c1ccccc1` the Potency was inconclusive [inhibitor, single point].
For `C=C[C@@H]1c2cc(C)ccc2N(S(=O)(=O)c2ccc(C)cc2)[C@H](c2ccccc2)C1(C#N)C#N`, the Potency was inconclusive [inhibitor, single point].
In the case of `O=C(c1cc(=O)[nH]c2ccccc12)N(Cc1nnc(-c2ccccc2Cl)o1)C1CC1`, the Potency is reported as inconclusive [inhibitor, single point].
With `CCc1nc2ccc(C(=O)N(CC)CC(=O)Nc3c(F)cccc3F)cc2nc1CC` the Potency was inconclusive [inhibitor, single point].
In the case of `CCOc1ccc(C(C)NC(=S)NCc2ccc(F)cc2)cc1` (stereo not drawn), the Potency is reported as inconclusive [inhibitor, single point].
For `CCOC(=O)N1CCN(S(=O)(=O)N2CCCC(C(=O)NCCCN3CC(C)CC(C)C3)C2)CC1` (stereo not drawn), the “activity change, negative = inhibition” value was inactive: 5.64%.
For `Cc1cc(Cl)ccc1NC(=O)c1ccc2c(c1)OCO2`, the “activity change, negative = inhibition” value was inactive: 86.2%.
In the case of `CN(C(=O)c1cc(S(=O)(=O)N2CCc3ccccc32)cn1C)C1CCCCC1`, the Potency is reported as inconclusive [inhibitor, single point].
In the case of `COc1ccccc1CNC(=O)[C@H](C)NC(=O)C1CCN(C(=O)[C@@H]2CCCN2C(=O)OC(C)(C)C)CC1`, the Potency is reported as inconclusive [inhibitor, partial curve, poor fit].
With `CC(C)[C@H](NC(=O)N1CCn2c1nc1ccccc12)C(=O)NCCc1ccccc1` the Potency was inconclusive [inhibitor, single point].
With `OCCCNc1c2ccccc2nc2ccccc12` the Potency was active: 5.22 µM.
With `O=C(Nc1ccc(N2CCN(Cc3ccccc3)CC2)cc1)c1cccnc1` the Potency was inconclusive [inhibitor, single point].
With `COc1ccc(C2C3=C(CC(C)(C)CC3=O)Oc3ncn(Cc4ccco4)c(=N)c32)cc1` (stereo not drawn) the Potency was inconclusive [inhibitor, partial curve].
In the case of `Cc1ccc(NC(=O)c2ccc3c(=O)n4c(nc3c2)CCC4)cc1S(=O)(=O)N(C)C`, the Potency is reported as inconclusive [inhibitor, single point].
For `COC(=O)CNC(=O)c1cn(-c2ccc(C)c(C)c2)c(=O)c2ccccc12`, the Potency was inconclusive [inhibitor, single point].
With `O=c1[nH]oc(O)c1-c1ncc(C(F)(F)F)cc1Cl` the Potency was inconclusive [inhibitor, single point].
With `CCOC(=O)C1(Cc2cccc(OC)c2)CCN(Cc2ccc(OC)c(O)c2)CC1` the Potency was inconclusive [inhibitor, single point].
With `Cc1ccc(C2=N/C(=C\c3cccc(F)c3)C(=O)O2)cc1` the Potency was inconclusive [inhibitor, single point].
In the case of `O=NN(CCc1ccncc1)c1ccc(OCc2ccccc2)cc1`, the Potency is reported as inconclusive [inhibitor, partial curve].
With `Nc1c(C(=O)NCc2ccco2)c2nc3ccccc3nc2n1Cc1ccccc1` the Potency was inconclusive [inhibitor, single point].
In the case of `CNc1nc(SCc2ccccc2Cl)nc2c1CCCC2`, the Potency is reported as active: 13.1 µM.
In the case of `FC(F)(F)c1cccc(NC(=S)NNC(=S)Nc2cccc(C(F)(F)F)c2)c1`, the Potency is reported as inconclusive [inhibitor, single point].
For `CSc1ncccc1C(=O)Nc1nccs1`, the “activity change, negative = inhibition” value was inactive: 13.7%.
With `O=C(NCC12CC3CC(CC(C3)C1)C2)c1cc2n(n1)C(C(F)(F)F)CC(c1ccco1)N2` (stereo not drawn) the Potency was inconclusive [inhibitor, partial curve, poor fit].
In the case of `COc1cc(-c2nnc(SCC(=O)N3CCCC3)o2)cc(OC)c1OC`, the Potency is reported as inconclusive [inhibitor, partial curve].
With `CCOC(CNC(=O)CN1C(=O)COc2ccc(S(=O)(=O)N3CCCC3)cc21)OCC` the “activity change, negative = inhibition” value was inactive: 11.6%.
For `COc1ccc(C(=O)NCC(=O)OCc2c(Cl)cccc2Cl)cc1OC`, the Potency was inconclusive [inhibitor, single point].
With `CN1[C@@H]2CC[C@H]1CC(OC(c1ccccc1)c1ccccc1)C2` (stereo partly drawn) the Potency was active: 13.5 µM and active: 16.9 µM.
With `COCc1c(Br)c(C)nc2sc3c(=O)[nH]nnc3c12` the activity change, negative = inhibition was inactive: -6.93% [at 0.00184 µM].
In the case of `CCCc1nnc(SCC(=O)Nc2ccc(C(=O)OCC)cc2)o1`, the Potency is reported as inconclusive [inhibitor, single point].
For `COc1ccc(OC)c(NC(=O)c2cc(-c3ccc(C)cc3O)n[nH]2)c1`, the Potency was active: 10.4 µM.
In the case of `COc1ccc(-c2cnnc(N/N=C/c3ccc(C)o3)n2)cc1`, the Potency is reported as inconclusive [inhibitor, partial curve].
In the case of `CNC(=O)NC(=O)C(C)OC(=O)c1c2c(nc3ccccc13)/C(=C/c1cccs1)CC2` (stereo not drawn), the “activity change, negative = inhibition” value is reported as inactive: 35.1%.
In the case of `O=C(O)C(c1ccccc1)N1C(=O)/C(=C/c2cccs2)SC1=S` (stereo not drawn), the Potency is reported as inconclusive [inhibitor, single point].
For `O=C(c1ccc2noc(-c3ccccc3)c2c1)N1CCN(c2ccccc2)CC1`, the Potency was inconclusive [inhibitor, single point].
For `NC(=O)Cc1nc(-c2ccc(Br)cc2)cs1`, the “activity change, negative = inhibition” value was inactive: 28.5%.
In the case of `COCC1CCN(C(=O)c2oc3c(F)cccc3c2C)C1` (stereo not drawn), the Potency is reported as inconclusive [inhibitor, full curve, poor fit].
With `Nc1nonc1-n1nnc(C(=O)N/N=C/c2ccc(Br)cc2)c1-c1ccc2c(c1)OCO2` the Potency was active: 0.208 µM.
In the case of `CCOc1cc2c(cc1OCC)C(c1ccccc1)N(c1ccc(C(=O)O)cc1)C(=O)C2` (stereo not drawn), the Potency is reported as inconclusive [inhibitor, partial curve, poor fit].
With `COc1ccccc1C(C)NC(=O)Cc1ccc(S(=O)(=O)N2CCOCC2)s1` (stereo not drawn) the Potency was inconclusive [inhibitor, single point].
In the case of `C=CCn1c(SCC#N)nc2c(c1=O)C(C)(C)Cc1ccccc1-2`, the Potency is reported as inconclusive [inhibitor, single point].
With `O=C1CCC(/C=C/c2ccccc2)=NN1Cc1ccc(F)cc1` the “activity change, negative = inhibition” value was inactive: 15%.
For `C=CCNC(=O)CCc1nnc(C2(c3ccc(Cl)cc3)CCC2)o1`, the Potency was inconclusive [inhibitor, single point].
For `O=C(COc1cc2oc(=O)c3c(c2cc1Cl)CCCC3)NCc1cccnc1`, the “activity change, negative = inhibition” value was inactive: -6.34%.
With `N/C(=N\c1nc(CSc2ccccn2)cc(=O)[nH]1)Nc1ccc(Cl)cc1Cl` the Potency was inconclusive [inhibitor, single point].
In the case of `CCc1cc(=O)n2[nH]c(-c3ccccc3)c(-c3ccccc3)c2n1`, the “activity change, negative = inhibition” value is reported as inactive: 18.2%.
In the case of `O=C(CSc1nc(-c2cccs2)cc(C(F)(F)F)n1)Nc1cc(OCC(F)(F)F)cc([N+](=O)[O-])c1`, the Potency is reported as inconclusive [inhibitor, single point].
For `CCN(Cc1ccc(OC)c(F)c1)C(C)C(=O)Nc1ccc(S(=O)(=O)N2CCCC2)cc1` (stereo not drawn), the Potency was active: 10.4 µM.
For `c1ccc(-c2ccccc2OCCCN2CCCC2)cc1`, the “activity change, negative = inhibition” value was inactive: -22.7%.
With `COc1ccc(OC)c(NC(=O)NCCN2CCN(c3ccccc3)CC2)c1` the Potency was inconclusive [inhibitor, single point].
With `S=C(Nc1ccccc1Cl)N(CCN1CCCCC1)Cc1ccco1` the “activity change, negative = inhibition” value was inactive: -3%.
For `COc1cc(C(CC(=O)N2CCCC2)c2c(OC)cc(OC)c3c(-c4ccccc4)cc(=O)oc23)cc(OC)c1OC` (stereo not drawn), the Potency was active: 5.22 µM.
For `Cc1ccc(CNc2oc(-c3ccco3)nc2S(=O)(=O)c2ccccc2)cc1`, the Potency was active: 10.4 µM.
With `COc1cc2ccccc2cc1C(=O)Nc1nnc(-c2ccncc2)o1` the “activity change, negative = inhibition” value was inactive: 0.864%.
With `CN1CCN(S(=O)(=O)c2ccc(NC(=O)COc3ccccc3Cl)cc2)CC1` the Potency was inconclusive [inhibitor, partial curve].
In the case of `Clc1ccc(-c2cc3ccccc3nc2N2CCOCC2)cc1`, the Potency is reported as inconclusive [inhibitor, single point].
